# Measured values from the RNAGym collection of RNA variant scans (doi:10.1073/pnas.2313332121).
# Variants at the background level are over-represented here.
# B1: TPR 5TU (parent)
# chain: GGAUCUUCUCGAUCUAACAAAAAAGACAAAUCUGCCACAAAGCUUGAGAGCAUCUUCGGAUGCAGAGGCGGCAGCCUUCGGUGGCGCGAUAGCGCCAACGUUCUCAACUAUGACACGCAAAACGCGUGCUCCGUUGAAUGGAGUUUAUCAUG
# Variants of: B1
# Experiment: polymerase ribozyme fitness, log enrichment relative to wild type (log ratio); higher = more active; in vitro selection for triplet polymerase activity
# Summary of the method: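 Both subunits of a heterodimeric triplet polymerase ribozyme were given their own mutant library, built by PCR and transcribed. Each library was annealed with a biotinylated primer, the partner subunit and triplets, incubated frozen at −7 °C, and its extended constructs gel-excised, captured on streptavidin beads and amplified by RT-PCR, all in one round done in triplicate. Fitness is the logarithm of genotype enrichment relative to wild-type enrichment, with replicates averaged by inverse-variance weighting. That logarithm is base 2, and Illumina-sequenced genotypes needed ≥10 input reads and ≥1 read per output.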
row,Variant,polymerase ribozyme fitness (log ratio)
1,A12G C75U C93U U144C,-0.389
2,A12C A16U C87G,≤ -4.2
3,A12U A20G G25U A37U C43U C95G C116U G136C,≤ -4.2
4,A12U U44G C54U C85U A98G,≤ -4.2
5,A12U C87U A97U,-0.917
6,A12C G94U U148A,≤ -4.2
7,A12C U77A G86A A150G,≤ -4.2
8,A12G U53A G68A A107U,≤ -4.2
9,A12G U31A C32G C43U A47C C123U,≤ -4.2
10,A12G A37U U55G A113C,≤ -4.2
11,A12U C43A G83A A89U C105U A107G,≤ -4.2
12,U13C C57U A73C G94C G136A A147C,≤ -4.2
13,U13C C36A G100A A122G C123A,≤ -4.2
14,A12G U61A C76A A106G,-3.97
15,A12G A19G A30U C54A G83U G126A,≤ -4.2
16,A12U C14G U53G U77C C103G G126U G141A,≤ -4.2
17,A12G C69U G74U U78G G84A A138C G143U,≤ -4.2
18,A12U C27U A73U C96G A97U A107G,≤ -4.2
19,U13A U45A C54U U109C,≤ -4.2
20,G11U G42A C76U G94C C129G,≤ -4.2
21,U13C C14A A20U C38A C96A A110G,≤ -4.2
22,A12C G94U A150G,-2.61
23,A12G A52C C75G C85A U127G,≤ -4.2
24,U13A A40U G50U A64C G92U C118U,≤ -4.2

row,Variant,polymerase ribozyme fitness (log ratio)
1,U13G A24U A30G C87U G88C U102C A147U,≤ -4.2
2,A12G A37G A52U A73G G83U G136C,≤ -4.2
3,A12C U15A U56A,-0.709
4,A12U A22U G25U A30U C93A A98U U135A,≤ -4.2
5,U13A C87A C93A C95G A121U U127G G140A,≤ -4.2
6,A12G A39C C75G G86A,≤ -4.2
7,A12G C14G G92C,-2.86
8,A12C A98G,-0.18
9,A12C C96U,-0.42
10,A12U C18G G50C A120U C125U C149G,≤ -4.2
11,A12U C38G A113C U134C,≤ -4.2
12,A12G G25A A26U A28C U56A,≤ -4.2
13,U13A A19U C75U U78C G80C A150G,≤ -4.2
14,A12C G58C C96G,-1.07
15,A12G U13C G86U C96U C125U A142C,≤ -4.2
16,A12C A52G C54G C76G G94U,≤ -4.2
17,A12G C27G G83C A97U C123U,≤ -4.2
18,A12G A28G U61A C85U,≤ -4.2
19,A12C U13A A24C G48A G84U A115C C118G,≤ -4.2
20,A12U A91G,-2.26
21,A12U A91U,≤ -4.2
22,U13C A28G A66G U104G A113G U145G,≤ -4.2
23,A12U C72U A73G A138C A142U A147C,≤ -4.2
24,A12U U90A G92U G126A A147U,≤ -4.2

row,Variant,polymerase ribozyme fitness (log ratio)
1,U13G A24C C51U G94A,≤ -4.2
2,A12C C38A C93U,-1.62
3,A12G A30C G86U C87G C93U U139C,≤ -4.2
4,U13C C32U A47C C57A U77A,≤ -4.2
5,A12G C35A C95U A106U,≤ -4.2
6,A12C U61A G68C C93G G94C C105U,≤ -4.2
7,A12C C38A U55G A73U A107G U134C,≤ -4.2
8,U13G A24U A66C C76A U144A U146A,≤ -4.2
9,A12G C54G C116U,-0.574
10,U13C A49C G74U U77A C93U U134G,≤ -4.2
11,A12C A20G A37C C51U G58C A91C,≤ -4.2
12,U13G G68A U139C,≤ -4.2
13,U13C C27U G50C G92C,-4.02
14,U13C G42C C96U A122C,≤ -4.2
15,A12G C14G A52C G67A G124A A137C,≤ -4.2
16,A12U G88C C114U,≤ -4.2
17,U13G C75A C108G G143A,≤ -4.2
18,A12U C87U A119U,-1.23
19,A12U A41U G65C G70C C79U,≤ -4.2
20,A12G U53G G59A C95G A98C U146A,-1.26
21,U13A C36A G50A C79U C96A,≤ -4.2
22,A12U A23C C54G U55G C79A G83U G92A G124C U145A,≤ -4.2
23,U13A C18G A30G A60C G68C C79G C87G A106U,≤ -4.2
24,U13G A19U A22C C54G A60U C76A C79U G92U A98U,≤ -4.2

row,Variant,polymerase ribozyme fitness (log ratio)
1,U13C G58C G67A G94C,≤ -4.2
2,A12U G84U,-1.97
3,A12G A20U G25U U55A A106G A138U G140U U145C,≤ -4.2
4,A12G C18G G58A U77G C96G G141U,≤ -4.2
5,A12C A24U C57G C103G C116U G124U,≤ -4.2
6,U13G C103A,-2.97
7,U13G A40C C96G A119G,-1.98
8,G11U C85A C131A A137G G143A,≤ -4.2
9,U13G A28C A41G C54A C75A U82A A91U G141A U151G,≤ -4.2
10,A12U A16G A30U C79G C95A U144A,≤ -4.2
11,A12C A19C U45G G84U A142C,≤ -4.2
12,A12G G46C G83A C85G C131A,≤ -4.2
13,A12G G83C,-0.586
14,U13G G50U A52U G59C A89G A110C U151G,≤ -4.2
15,A12C A24U G59A A60C A142C,≤ -4.2
16,U13G A29G U33G G42A U44A G80C G88U C96U C105G G112C C123G,≤ -4.2
17,A12C A24U A49C C99U G143U,≤ -4.2
18,A12C A28U C54G C96A A121G G133U,≤ -4.2
19,A12G G42A G94A C123U,≤ -4.2
20,A12C A52C U78C C114U C131U U148A,≤ -4.2
21,A12U A16U A20G C36G C54U A60G G83A,≤ -4.2
22,A12C G71U C93U A97G C103U C131G G141C,≤ -4.2
23,U13A C18G,-0.831
24,U13A A16C A91G,-2.83

row,Variant,polymerase ribozyme fitness (log ratio)
1,U13C C63G G68A G133U U144G U148G,≤ -4.2
2,A12U C35U A91G,-3.67
3,A12U A28U U55G A66C G74C G80C C85A C87U C96U,≤ -4.2
4,A12C U56A C76G U78C C96U A106G C123U A142C,≤ -4.2
5,A12C A29U A66G U101G C131G,≤ -4.2
6,U13C G59A U61G G62A C93U G141C,≤ -4.2
7,A12U G50A C85A G88A A121G,≤ -4.2
8,U13C C85G C99A A138C,≤ -4.2
9,U13C A49G C54G G68A,≤ -4.2
10,U13G A37C G83A G124C A142C,≤ -4.2
11,A12G C87A A89G A119U C123A G126U U134C G141U U151G,≤ -4.2
12,A12U U15C U56A G92A A150G,-1.16
13,A12U C63A U78G C95U,≤ -4.2
14,U13A G80U G100U G136A C149U,≤ -4.2
15,G11U C32U C93G A107G,≤ -4.2
16,A12U G67U G84A A110U,≤ -4.2
17,A12C A26U A66C G84A C96U A97G,≤ -4.2
18,U13A A52G U82A,-0.721
19,U13G C14G A23U C27A G68A C87A,≤ -4.2
20,U13A G50A U56C G83C C85A G94U U134G A137C,≤ -4.2
21,A12C G81U C95G A122U U148G G152U,≤ -4.2
22,U13G C43A U82G G100A U146G,≤ -4.2
23,A12C A60U C75G G88C A91G U109G,≤ -4.2
24,A12U A19C C95U C105A,-1.03

row,Variant,polymerase ribozyme fitness (log ratio)
1,U13A A40C C57A G88A A119C,≤ -4.2
2,A12C A16C U53G C85A C99A U109G G133A G143A,≤ -4.2
3,U13C A16U,-0.079
4,A12U A21G A40U G86U C96G U139C,≤ -4.2
5,U13G A17G C96A G143C,-4.19
6,U13G A24C A30C G42A C103U G126C G128U C129A A137G,≤ -4.2
7,A12C C14G A26U A49C G59A C131A,≤ -4.2
8,A12G U13A A19C G92C C99U G124C U148G G152U,≤ -4.2
9,A12U A26C A29U G59C C85G G100C C116U C149A,≤ -4.2
10,U13G A20C U55G U90G C95G C105A C116G G124A,≤ -4.2
11,U13G C32G G94A,≤ -4.2
12,A12G A24G C35A U44G G50C G71C G124A,≤ -4.2
13,U13G C14G U31A A41C G86A U90G G100A C131A,≤ -4.2
14,A12U A20U A21C A29C C43A C76A,≤ -4.2
15,G11U C76A G83U C85A A137G,≤ -4.2
16,U13G A17G A19C A49C C51U G74U G143C,≤ -4.2
17,A12G A16C A29U C38A C95G U111G G136C,≤ -4.2
18,A12U A28G A49U C54G C93G,≤ -4.2
19,A12U G71A A107C,≤ -4.2
20,U13A A30G G83U A110U G117C,≤ -4.2
21,U13A A26U C76U U146A,-3.35
22,A12C G133C U145A,-1.11
23,A12U A37U A60G C85U G86C A89U,≤ -4.2
24,A12G A20C C57G C75G C85U A115G G141U,≤ -4.2

row,Variant,polymerase ribozyme fitness (log ratio)
1,A12G A30U U56G G58C C75A G84U C116A,≤ -4.2
2,A12U U31C C32U A40U C57G A73G C75A G88A G152A,≤ -4.2
3,A12U U82G,-1.49
4,A12C A30U G86A C99A,≤ -4.2
5,A12U U135A G136C U146G,≤ -4.2
6,A12G C54A U55A C79G C85U C114G G117U,≤ -4.2
7,G11U G70A C85U G94U G133U G143A U145G,≤ -4.2
8,A12U A17G C57A A98U,-0.729
9,A12G A24U G34A G92U G126C,-1.83
10,A12G G88A U109C A142C,-4.12
11,A12C C38U C54U C76U U77G G84A U127A A138U,≤ -4.2
12,A12G C18G G58C C103G C114A A119G U130A,≤ -4.2
13,A12G G25C C75U U90G U102G C118G C131G,≤ -4.2
14,A12U U13G A24C A41G A49U C76A C99A G128C G136U A137U,≤ -4.2
15,U13G G68A G74A C95U C105G C118A C123A,≤ -4.2
16,A12U C54U G59C A60G U144G,-0.245
17,A12C A17G U31G U44A C93U C99U A122C U134A A142G,≤ -4.2
18,U13G A37G C87A G143A,≤ -4.2
19,G11U U31A C87A C93U C99G,≤ -4.2
20,A12U U45A U55G A66G U78C G88U C95G A137U,≤ -4.2
21,A12U A16U C51A G94A U109C A113G C116A U144A,≤ -4.2
22,A12U U15C A49C G88C C123U G143C,≤ -4.2
23,G11U C14G C87A A121U C125A,≤ -4.2
